Source: PubChem BioAssay AID463173 (ICCB-Longwood Screening Facility, Harvard Medical School, 2010)
About 4,300 (8.3%) of roughly 52,000 compounds were called active. No stated cut-off is given here; in the data, active means survival mostly below about 52% (no sharp cut-off); inactive means mostly above about 56%. The list shows a part of the results.

System: DeltatarO mutant
Assay: growth inhibition of S. aureus wild type versus tarO mutant, primary screen, teichoic acid synthesis inhibitors, RN4220, OD600 (AID 463173)
Conditions: OD600, 18 h, hits give low values; concentration not given here unless noted

CCC1(CCc2ccncc2)C(=O)NC(=O)NC1=O was tested. Which survival did it give?
Its survival is inactive: 75%.

Which survival does the source give for CC(c1ccccc1)N1CCNCC1 (stereo not given) here?
The survival was inactive: 95%.

With CCC(C(=O)Nc1ccccc1F)N1C(=O)CN=C(c2ccccc2)c2ccccc21 (stereo not given) as the compound, how does the survival read?
Its survival is inactive: 84%.

For CCc1ccc(-n2nc(C)c3c2NC(=O)CSC3c2ccc(OC)cc2OC)cc1 (stereo not given), which survival is on record?
Its survival is inactive: 60%.

For CCOC(=O)c1ccc(NC(=O)c2cccn(Cc3ccccc3F)c2=O)cc1, which survival is on record?
Its survival is inactive: 86%.

N#Cc1ccccc1NC(=O)c1cccn(Cc2ccccc2)c1=O was tested. Which survival did it give?
Its survival is inactive: 94%.

With CCN=Cc1c(O)n(C)c(=O)n(C)c1=O as the compound, how does the survival read?
Its survival is inactive: 91%.

With COc1ccc(-c2nc(CN3C(=O)CN=C(c4ccccc4Cl)c4cc(Cl)ccc43)c(C)o2)cc1OC as the compound, how does the survival read?
Its survival is inactive: 63%.

Which survival does the source give for Cc1cccc(CN2C(=O)CN=C(c3ccccc3)c3cc(Cl)ccc32)c1 here?
Its survival is inactive: 92%.

For CCCc1ccc(OCC(=O)Nc2ccc(Cl)cc2C(=O)c2ccccc2)cc1, which survival is on record?
Its survival is inactive: 67%.

With CC(C)c1ccc(NC(=O)CN2C(=O)CN=C(c3ccccc3)c3ccccc32)cc1 as the compound, how does the survival read?
Its survival is inactive: 93%.

Which survival does the source give for COc1ccc(OCC(=O)N2CCN(CCc3ccccn3)CC2)cc1 here?
The survival was inactive: 55%.

How did the survival turn out when O=C(NC1CC2CCC(C1)N2)c1ccccc1 (stereo not given) was run?
The survival was inactive: 90%.

N#CC(C#N)=Cc1ccc(N2CCCCC2)cc1 was tested. Which survival did it give?
The survival was inactive: 84%.

How did the survival turn out when COc1ccc(C)cc1NC(=O)c1cccn(Cc2ccccc2Cl)c1=O was run?
Its survival is inactive: 93%.

Which survival does the source give for O=C(COc1ccccc1[N+](=O)[O-])N1CCN(CCc2ccncc2)CC1 here?
Its survival is inactive: 90%.

For Cc1cccc(C)c1OCC(=O)Nc1ccc(Cl)cc1C(=O)c1ccccc1, which survival is on record?
Its survival is active: 17%.

Which survival does the source give for COc1ccc(CN2CCNCC2)cc1 here?
The survival was inactive: 67%.

Which survival does the source give for C1CCN2C(C1)N1CCCCC1N1CCCCC21 (stereo not given) here?
The survival was inactive: 100%.

For CN1C(=O)C(=Cc2ccco2)C(=O)N(C)C1=O, which survival is on record?
Its survival is inactive: 78%.

CCC(C)N1CCN(Cc2cc(OC)c(OC)cc2OC)CC1 (stereo not given) was tested. Which survival did it give?
The survival was inactive: 108%.

Which survival does the source give for Cc1ccc(-n2c(/C=C/c3ccccc3)nc3ccccc3c2=O)cc1Cl here?
The survival was inactive: 68%.

For CC(=O)OC1(c2ccccc2)CCN(C)C2CCCCC21 (stereo not given), which survival is on record?
The survival was inactive: 91%.

How did the survival turn out when CN1/C(=C\C=C2C(=O)NC(=O)NC2=O)C(C)(C)c2ccccc21 was run?
The survival was inactive: 83%.

For CCCNCCc1ccccc1, which survival is on record?
The survival was inactive: 85%.

With Cc1ccc(NC(=O)CN2C(=O)CN=C(c3ccccc3)c3ccccc32)c(C)c1 as the compound, how does the survival read?
The survival was inactive: 90%.

For N=C1SCC(=O)N1Cc1ccccc1, which survival is on record?
Its survival is inactive: 66%.

For CC(C)OC12Oc3ccccc3C=C1N1CCC2CC1 (stereo not given), which survival is on record?
Its survival is inactive: 80%.

O=c1c2ccccc2nc(-c2ccco2)n1-c1nccs1 was tested. Which survival did it give?
The survival was inactive: 84%.

COc1cc(/C=C/c2nc3ccccc3c(=O)n2-c2ccc(Br)c(C)c2)ccc1O was tested. Which survival did it give?
The survival was inactive: 71%.

How did the survival turn out when N#Cc1cc([N+](=O)[O-])ccc1NC(=O)c1cccn(Cc2cccc(F)c2)c1=O was run?
Its survival is inactive: 102%.

O=C(Nc1ccc2c(c1)OCCO2)c1cccn(Cc2cccc([N+](=O)[O-])c2)c1=O was tested. Which survival did it give?
The survival was inactive: 94%.

Which survival does the source give for CC12CCC3C(CCC4CC(N)CCC43C)C1CCC2O (stereo not given) here?
The survival was inactive: 113%.

CSc1ccc(C(c2c(O)c3ccccc3oc2=O)c2c(C)n(C)n(-c3ccccc3)c2=O)cc1 (stereo not given) was tested. Which survival did it give?
The survival was inactive: 128%.

CN1CCN(c2csc3ccc(F)cc3c2=O)CC1 was tested. Which survival did it give?
Its survival is inactive: 98%.

For CCOc1ccc(-n2c(/C=C/c3ccccc3)nc3ccccc3c2=O)cc1, which survival is on record?
Its survival is inactive: 107%.

Which survival does the source give for N#Cc1cc2c(nc1SCC(=O)Nc1cccc(F)c1)C1CCN2CC1 here?
The survival was active: -4%.

With CSc1nc2ccccc2c(=O)n1-c1ccccc1C as the compound, how does the survival read?
Its survival is inactive: 95%.

O=C(Nc1ccc2c(c1)OCO2)c1cccn(Cc2ccc(F)cc2)c1=O was tested. Which survival did it give?
The survival was inactive: 72%.

For Cc1ccccc1Cn1cccc(C(=O)Nc2cc(Cl)ccc2C#N)c1=O, which survival is on record?
The survival was inactive: 58%.

How did the survival turn out when O=c1cccc2n1CC1CC2CN(c2ncnc3c2cnn3-c2ccc(Cl)cc2)C1 (stereo not given) was run?
Its survival is inactive: 52%.

How did the survival turn out when Cn1c(=O)n(C)c2cc(CNCCc3ccccc3)ccc21 was run?
Its survival is inactive: 77%.

For CCC(=O)N1CC(=O)Nc2ccc(C)cc2C1c1ccc(F)cc1 (stereo not given), which survival is on record?
The survival was inactive: 64%.

CCN1CCN(C(=O)COc2ccc(S(=O)(=O)N(C)Cc3ccccc3)cc2)CC1 was tested. Which survival did it give?
Its survival is inactive: 87%.

For CCOc1ccc2nc(NC(=O)c3cccn(Cc4ccccc4C)c3=O)sc2c1, which survival is on record?
Its survival is inactive: 80%.

CCOc1ccc(CC2(CCc3ccncc3)C(=O)NC(=O)NC2=O)cc1 was tested. Which survival did it give?
Its survival is inactive: 76%.

Which survival does the source give for OCCCNc1c2c(nc3ccccc13)CCCC2 here?
The survival was inactive: 76%.

How did the survival turn out when N#CC(C#N)=Cc1ccc(-c2ccccc2)o1 was run?
Its survival is inactive: 96%.

With Cn1cc(C=C(C#N)C#N)c2ccccc21 as the compound, how does the survival read?
Its survival is inactive: 92%.

With COC(=O)c1cn(Cc2ccccc2C#N)c2ccccc12 as the compound, how does the survival read?
The survival was inactive: 82%.

Which survival does the source give for Cc1cc(NC(=O)c2cccn(Cc3cccc([N+](=O)[O-])c3)c2=O)no1 here?
The survival was inactive: 80%.

With O=C(Cc1ccccc1)Oc1cccc(-n2cnnn2)c1 as the compound, how does the survival read?
Its survival is inactive: 111%.

For Cc1cc(N2CCNCC2)nc2ccccc12, which survival is on record?
The survival was inactive: 86%.

Which survival does the source give for COc1ccc(-c2nc(CN3C(=O)CN=C(c4ccccc4)c4ccccc43)c(C)o2)cc1OC here?
The survival was inactive: 97%.

How did the survival turn out when CC1CC(=O)C2CCCCC2N1 (stereo not given) was run?
Its survival is inactive: 84%.

Which survival does the source give for CCc1ccc(OCC(=O)N2CCN(CCc3ccccn3)CC2)cc1 here?
Its survival is inactive: 63%.

COc1ccc(CNCC(=O)N2CCC3(CC2)OCCO3)cc1 was tested. Which survival did it give?
The survival was inactive: 93%.

Which survival does the source give for CN(C)C(=O)Oc1ccnc2cc(Cl)ccc12 here?
Its survival is inactive: 87%.

Which survival does the source give for O=C1CN=C(c2ccccc2)c2cc(Cl)ccc2N1Cc1ccc(Cl)cc1 here?
The survival was inactive: 66%.

How did the survival turn out when CCC(C)c1c(O)[nH]c(=S)[nH]c1=O (stereo not given) was run?
Its survival is inactive: 82%.

COc1ccc(-c2nn3c(=O)cc(CN4CCN(C(=O)COc5ccc(F)cc5)CC4)nc3s2)cc1 was tested. Which survival did it give?
Its survival is inactive: 71%.

With Cc1oc(-c2ccc(Cl)cc2)nc1CN1C(=O)CN=C(c2ccccc2)c2cc(Cl)ccc21 as the compound, how does the survival read?
The survival was inactive: 90%.

Which survival does the source give for Cc1ccc(C)c(CN2C(=O)c3ccccc3Sc3ccc(C(=O)N4CCC5(CC4)OCCO5)cc32)c1 here?
Its survival is inactive: 55%.

Which survival does the source give for O=C(c1ccc2c(c1)N(Cc1c(F)cccc1Cl)C(=O)c1ccccc1S2)N1CCC2(CC1)OCCO2 here?
The survival was inactive: 81%.

How did the survival turn out when O=C(Nc1ccc(OC(F)(F)F)cc1)c1cccn(Cc2ccccc2Cl)c1=O was run?
Its survival is inactive: 135%.

For Cc1cccc(CN2C(=O)CN=C(c3ccccc3Cl)c3cc(Cl)ccc32)c1, which survival is on record?
Its survival is inactive: 101%.

COc1ccc(N=C2SCCCN2C)cc1 was tested. Which survival did it give?
Its survival is inactive: 99%.

For Cc1ccc(-n2c(/C=C/c3ccccc3)nc3ccccc3c2=O)cc1C, which survival is on record?
The survival was inactive: 78%.

COc1ccc(C=C(C#N)C#N)c2ccccc12 was tested. Which survival did it give?
Its survival is inactive: 67%.

With Cc1ccc2scc(N3CCN(C)CC3)c(=O)c2c1 as the compound, how does the survival read?
Its survival is inactive: 107%.

How did the survival turn out when C=CCn1c(C)c(C(=O)OCC)c2cc(O)ccc21 was run?
The survival was inactive: 90%.

How did the survival turn out when CC(=O)c1ccc(NC(=O)c2sc3nc4c(cc3c2N)N2CCC4CC2)cc1 was run?
The survival was inactive: 98%.

O=c1c2ccccc2nc(CN2CCOCC2)n1-c1ccccc1F was tested. Which survival did it give?
Its survival is inactive: 91%.

CCOc1ccc(CN2C(=O)c3ccccc3Sc3ccc(C(=O)N4CCC5(CC4)OCCO5)cc32)cc1 was tested. Which survival did it give?
Its survival is inactive: 74%.

For Cc1c(C(c2ccc(O)cc2)c2c(O)c3ccccc3oc2=O)c(=O)n(-c2ccccc2)n1C (stereo not given), which survival is on record?
Its survival is active: 47%.

How did the survival turn out when NC(=O)c1ccc(NC(=O)c2cccn(Cc3ccccc3)c2=O)cc1 was run?
The survival was inactive: 83%.

How did the survival turn out when Cc1ccc(-n2c(/C=C/c3cccc(C(F)(F)F)c3)nc3ccccc3c2=O)cc1 was run?
Its survival is inactive: 72%.

Which survival does the source give for CCC(CC)NC1CCCCC1OC (stereo not given) here?
Its survival is inactive: 89%.

With N#CC1=C(N)Oc2c(c(=O)oc3ccccc23)C1C1CC=CCC1 (stereo not given) as the compound, how does the survival read?
The survival was inactive: 68%.

With Cc1cccc(-n2c(/C=C/c3cccc4ccccc34)nc3ccccc3c2=O)c1 as the compound, how does the survival read?
The survival was inactive: 94%.

How did the survival turn out when O=c1c2ccccc2nc(/C=C\c2cccc(Br)c2)n1-c1ccc(O)cc1 was run?
The survival was inactive: 100%.

CCSc1nnc(NC(=O)c2cccn(Cc3ccc(Cl)cc3)c2=O)s1 was tested. Which survival did it give?
The survival was inactive: 73%.

Which survival does the source give for N#Cc1cc2c(nc1SCC(=O)Nc1ccc(Cl)c(C(F)(F)F)c1)C1CCN2CC1 here?
The survival was active: -1%.

Which survival does the source give for O=C1NC(=O)C(C(CC(=O)c2ccccc2)c2ccccc2)C(=O)N1 (stereo not given) here?
The survival was inactive: 81%.

With COc1ccc(NC(=O)c2cccn(Cc3ccc(Cl)cc3)c2=O)c(OC)c1 as the compound, how does the survival read?
Its survival is inactive: 80%.

Which survival does the source give for O=C(/C=C/c1ccco1)C1C(=O)c2ccccc2C1=O here?
Its survival is inactive: 98%.

O=C(COc1ccccc1)N1CCN(Cc2ccc(Br)cc2)CC1 was tested. Which survival did it give?
Its survival is inactive: 78%.

How did the survival turn out when CC1CN(C)C(C)(C)CC1(O)c1ccccc1 (stereo not given) was run?
Its survival is inactive: 95%.

For O=C(COc1ccccc1[N+](=O)[O-])N1CCN(CCc2ccccn2)CC1, which survival is on record?
The survival was inactive: 49%.

How did the survival turn out when Cc1ccccc1-n1c(/C=C/c2ccccc2F)nc2ccccc2c1=O was run?
The survival was active: 5%.

With O=C(Nc1ccccc1C(F)(F)F)c1cccn(Cc2ccccc2)c1=O as the compound, how does the survival read?
Its survival is inactive: 88%.

Cc1ccc(-n2c(/C=C/c3cccc4ccccc34)nc3ccccc3c2=O)cc1 was tested. Which survival did it give?
Its survival is inactive: 77%.

How did the survival turn out when NC(=O)CN1C2CCC1CC(NC(=O)C1CC1)C2 (stereo not given) was run?
The survival was inactive: 102%.

COCCNC(=O)CN1C2CCC1CC(O)(c1cccnc1)C2 (stereo not given) was tested. Which survival did it give?
Its survival is inactive: 69%.

How did the survival turn out when S=c1[nH]nc(CCN2CCN(c3ccc(Cl)cc3)CC2)n1-c1ccccc1 was run?
Its survival is inactive: 68%.

For Cc1cccc(Cn2cccc(C(=O)Nc3nc4ccccc4s3)c2=O)c1, which survival is on record?
Its survival is inactive: 122%.

Cc1cccc(-n2c(CC3C(=O)Nc4ccc(C)cc43)nc3ccccc3c2=O)c1 (stereo not given) was tested. Which survival did it give?
The survival was active: 34%.

With COc1cccc(-n2c(/C=C/c3cccc(C)c3)nc3ccccc3c2=O)c1 as the compound, how does the survival read?
Its survival is active: 0%.

Which survival does the source give for COc1ccc(OC)c(CCNCc2c(C(=O)O)c(C)n(Cc3ccc(F)cc3Cl)c2C)c1 here?
Its survival is inactive: 67%.

With OC1(c2ccc(F)cc2)CC2CCC(C1)N2Cc1nnnn1C1CCCCC1 (stereo not given) as the compound, how does the survival read?
Its survival is inactive: 97%.
